# From the supplement of paper PMC4604168 (melanoma cell lines)
# The list shows a part of the results. Single values are uncertain, as repeats are few or missing.
# Experiments:
# Experiment in all cases: cell count relative to DMSO control; melanoma cells; higher = more viable cells
# Conditions in all cases: library dose: low library concentration; 72 h
# MZ2-MEL = tested on: MZ2-MEL
# MeWo = tested on: MeWo
# RPMI7951 = tested on: RPMI7951
# RVH-421 = tested on: RVH-421
# SkMel28 = tested on: SkMel28
# SkMel2 = tested on: SkMel2
# SkMel30 = tested on: SkMel30
# UACC62 = tested on: UACC62
# 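Also: cell number obtained by counting DAPI-stained nuclei in high-throughput microscope images with image analysis software, screen run in 1,536-well plates.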
SMILES,cell count (MZ2-MEL) [%],cell count (MeWo) [%],cell count (RPMI7951) [%],cell count (RVH-421) [%],cell count (SkMel28) [%],cell count (SkMel2) [%],cell count (SkMel30) [%],cell count (UACC62) [%]
"Cc1cc(Nc2cc(N3CCN(C)CC3)nc(Sc3ccc(NC(=O)C4CC4)cc3)n2)n[nH]1 [Tozasertib] + Cc1nc(Nc2ncc(C(=O)Nc3c(C)cccc3Cl)s2)cc(N2CCN(CCO)CC2)n1 [dasatanib] (first compound 0.006 µM, partner dose 0.004 µM)",78.3,86.7,78.2,64.9,79.5,92.6,83,87.6
"CC[C@]1(O)C[C@H]2CN(CCc3c([nH]c4ccccc34)[C@@](C(=O)OC)(c3cc4c(cc3OC)N(C=O)[C@H]3[C@@](O)(C(=O)OC)[C@H](OC(C)=O)[C@]5(CC)C=CCN6CC[C@]43[C@@H]65)C2)C1 [vincristine] + COc1ccc(Cl)c(Nc2nc3ccccc3nc2NS(=O)(=O)c2cccc(NC(=O)C(C)(C)N)c2)c1 [XL147] (first compound 0.0001 µM, partner dose 0.8 µM)",88.8,96.6,83.4,74.5,86.9,98.3,78.9,66.3
"Cc1cc(Nc2cc(N3CCN(C)CC3)nc(Sc3ccc(NC(=O)C4CC4)cc3)n2)n[nH]1 [Tozasertib] + Cc1ccc(Nc2nccc(N(C)c3ccc4c(C)n(C)nc4c3)n2)cc1S(N)(=O)=O [Pazopanib] (first compound 0.006 µM, partner dose 0.4 µM)",83.6,100,84.1,106,73.9,95.7,95.3,87.9
"Cc1cc(Nc2cc(N3CCN(C)CC3)nc(Sc3ccc(NC(=O)C4CC4)cc3)n2)n[nH]1 [Tozasertib] + CCCS(=O)(=O)Nc1ccc(F)c(C(=O)c2c[nH]c3ncc(Cl)cc23)c1F [PLX4720] (first compound 0.006 µM, partner dose 0.08 µM)",83.6,92.5,101,68.4,90,89.9,90.1,49.1
"N#CC[C@H](C1CCCC1)n1cc(-c2ncnc3[nH]ccc23)cn1 [ruxolitinib] + O=c1[nH]nc(Sc2ncc([N+](=O)[O-])s2)n1-c1ccc2c(c1)OCCO2 [BI78D3] (first compound 1 µM, partner dose 0.2 µM)",100,91,102,96.4,95.3,111,99.1,131
"Cc1cc(Nc2cc(N3CCN(C)CC3)nc(Sc3ccc(NC(=O)C4CC4)cc3)n2)n[nH]1 [Tozasertib] + CNC(=O)c1cc(Oc2ccc(NC(=O)Nc3ccc(Cl)c(C(F)(F)F)c3)cc2)ccn1 [sorafenib] (first compound 0.006 µM, partner dose 0.4 µM)",100,96.4,115,88.5,86.1,102,114,86.3
"Cc1cc(Nc2cc(N3CCN(C)CC3)nc(Sc3ccc(NC(=O)C4CC4)cc3)n2)n[nH]1 [Tozasertib] + O=C(Nc1cc(C(F)(F)F)cc(C(F)(F)F)c1)c1cc(Cl)ccc1O [IMD0354] (first compound 0.006 µM, partner dose 0.016 µM)",96.2,90.1,104,77.1,92.5,102,84.6,102
"N#CC[C@H](C1CCCC1)n1cc(-c2ncnc3[nH]ccc23)cn1 [ruxolitinib] + O=C(Nc1cc(C(F)(F)F)cc(C(F)(F)F)c1)c1cc(Cl)ccc1O [IMD0354] (first compound 1 µM, partner dose 0.016 µM)",102,101,104,96.8,126,108,104,125
"N#CC[C@H](C1CCCC1)n1cc(-c2ncnc3[nH]ccc23)cn1 [ruxolitinib] + C[C@]1(c2nc3c(C(N)=O)cccc3[nH]2)CCCN1 [Veliparib] (first compound 1 µM, partner dose 1.4 µM)",100,90.4,99.5,98.8,106,–,98.5,–
"Cc1cc(Nc2cc(N3CCN(C)CC3)nc(Sc3ccc(NC(=O)C4CC4)cc3)n2)n[nH]1 [Tozasertib] + CC(C)C[C@H](NC(=O)[C@H](Cc1ccccc1)NC(=O)c1cnccn1)B(O)O [Bortezomib] (first compound 0.006 µM, partner dose 0.001 µM)",87,81,99.2,79.5,103,93,90.4,84.9
"CC[C@]1(O)C[C@H]2CN(CCc3c([nH]c4ccccc34)[C@@](C(=O)OC)(c3cc4c(cc3OC)N(C=O)[C@H]3[C@@](O)(C(=O)OC)[C@H](OC(C)=O)[C@]5(CC)C=CCN6CC[C@]43[C@@H]65)C2)C1 [vincristine] + O=C(O)[C@@H]1[O][Sb](=[O])([O][Sb]2(=[O])[O][C@H]([C@H](O)CO)[C@H](O)[C@H](C(=O)O)[O]2)[O][C@H]([C@H](O)CO)[C@@H]1O [stibogluconate] (first compound 0.0001 µM, partner dose 2 µM)",106,114,117,111,96.7,107,89.3,89.2
"CC[C@]1(O)C[C@H]2CN(CCc3c([nH]c4ccccc34)[C@@](C(=O)OC)(c3cc4c(cc3OC)N(C=O)[C@H]3[C@@](O)(C(=O)OC)[C@H](OC(C)=O)[C@]5(CC)C=CCN6CC[C@]43[C@@H]65)C2)C1 [vincristine] + Cc1nc(Nc2ncc(C(=O)Nc3c(C)cccc3Cl)s2)cc(N2CCN(CCO)CC2)n1 [dasatanib] (first compound 0.0001 µM, partner dose 0.004 µM)",79.5,74.9,39.8,70.8,65.7,87.6,55.9,54.4
"Cc1cc(Nc2cc(N3CCN(C)CC3)nc(Sc3ccc(NC(=O)C4CC4)cc3)n2)n[nH]1 [Tozasertib] + CCN(CC)CCNC(=O)c1c(C)[nH]c(/C=C2\C(=O)Nc3ccc(F)cc32)c1C [sunitinib] (first compound 0.006 µM, partner dose 0.4 µM)",95.8,90.4,102,97.8,99.9,102,73.5,86.4
"Cc1cc(Nc2cc(N3CCN(C)CC3)nc(Sc3ccc(NC(=O)C4CC4)cc3)n2)n[nH]1 [Tozasertib] + CCCCCCCCCCCCCCCCCCOP(=O)([O-])OC1CC[N+](C)(C)CC1 [Perifosine] (first compound 0.006 µM, partner dose 0.4 µM)",103,93.1,106,91.6,95.4,89.4,111,85.1
"Cc1cc(Nc2cc(N3CCN(C)CC3)nc(Sc3ccc(NC(=O)C4CC4)cc3)n2)n[nH]1 [Tozasertib] + NC1(c2ccc(-c3nc4ccn5c(=O)[nH]nc5c4cc3-c3ccccc3)cc2)CCC1 [MK2206] (first compound 0.006 µM, partner dose 0.4 µM)",96.1,74.3,78,95.7,93.6,89.5,92.2,75.5
"Cc1cc(Nc2cc(N3CCN(C)CC3)nc(Sc3ccc(NC(=O)C4CC4)cc3)n2)n[nH]1 [Tozasertib] + Nc1ncn([C@H]2C[C@H](O)[C@@H](CO)O2)c(=O)n1 [decitabine] (first compound 0.006 µM, partner dose 0.1 µM)",81.8,72.6,71.9,79.1,87.4,103,89.7,67
"Cc1cc(Nc2cc(N3CCN(C)CC3)nc(Sc3ccc(NC(=O)C4CC4)cc3)n2)n[nH]1 [Tozasertib] + CO[C@H]1C[C@@H]2CC[C@@H](C)[C@@](O)(O2)C(=O)C(=O)N2CCCC[C@H]2C(=O)O[C@H]([C@H](C)C[C@@H]2CC[C@@H](OCCO)[C@H](OC)C2)CC(=O)[C@H](C)/C=C(\C)[C@@H](O)[C@@H](OC)C(=O)[C@H](C)C[C@H](C)/C=C/C=C/C=C/1C [everolimus] (first compound 0.006 µM, partner dose 0.02 µM)",76.3,65.2,79.1,80.6,51.4,–,75.4,65.7
"Cc1cc(Nc2cc(N3CCN(C)CC3)nc(Sc3ccc(NC(=O)C4CC4)cc3)n2)n[nH]1 [Tozasertib] + C[C@]1(O)C[C@@H](c2nc(-c3ccc4ccc(-c5ccccc5)nc4c3)c3c(N)nccn32)C1 [OSI906] (first compound 0.006 µM, partner dose 0.4 µM)",92.6,84.6,101,97.1,86.8,91.9,84.6,88.4
"CC[C@]1(O)C[C@H]2CN(CCc3c([nH]c4ccccc34)[C@@](C(=O)OC)(c3cc4c(cc3OC)N(C=O)[C@H]3[C@@](O)(C(=O)OC)[C@H](OC(C)=O)[C@]5(CC)C=CCN6CC[C@]43[C@@H]65)C2)C1 [vincristine] + Nc1ncn([C@H]2C[C@H](O)[C@@H](CO)O2)c(=O)n1 [decitabine] (first compound 0.0001 µM, partner dose 0.1 µM)",83.9,84.8,61,70.3,74.8,103,74.9,52.1
"N#CC[C@H](C1CCCC1)n1cc(-c2ncnc3[nH]ccc23)cn1 [ruxolitinib] + Cn1cnc2c(F)c(Nc3ccc(Br)cc3Cl)c(C(=O)NOCCO)cc21 [selumetinib] (first compound 1 µM, partner dose 0.015 µM)",111,94.4,135,90,117,89.7,96.5,118
"Cc1cc(Nc2cc(N3CCN(C)CC3)nc(Sc3ccc(NC(=O)C4CC4)cc3)n2)n[nH]1 [Tozasertib] + O=C(/C=C/c1cccnc1)NCCCCC1CCN(C(=O)c2ccccc2)CC1 [FK866] (first compound 0.006 µM, partner dose 0.01 µM)",54.1,85.1,84,111,67.5,54.5,113,97
